# Results: PubChem BioAssay AID485344 (National Center for Advancing Translational Sciences (NCATS), 2010)
# About 6,900 (2%) of roughly 340,000 compounds were called active. Rule as the data show it: active = inhibition above about 30%; inactive = below that, where a call was filed. The list shows a part of the results, in another mix than the full data. The source gives no active or inactive call for entries shown without one.
# Molecular target: D(2) dopamine receptor (Homo sapiens) (UniProt P14416)
# Test: HTS Assay for Allosteric Antagonists of the Human D2 Dopamine Receptor: Primary Screen for Antagonists; also: 0% is about no effect
# Details: HEK293 TREx D2 cells, calcium flux, dopamine EC80; at 10 µM; stronger effect = higher value
# In short: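 Dopamine at EC80 is the agonist stimulus; test compounds precede it by 180 s. Calcium flux read kinetically in a force-coupled, inducible HEK293 T-REx D2 cell line.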
# Sequence of UniProt P14416 (P14416 whole entry, looked up): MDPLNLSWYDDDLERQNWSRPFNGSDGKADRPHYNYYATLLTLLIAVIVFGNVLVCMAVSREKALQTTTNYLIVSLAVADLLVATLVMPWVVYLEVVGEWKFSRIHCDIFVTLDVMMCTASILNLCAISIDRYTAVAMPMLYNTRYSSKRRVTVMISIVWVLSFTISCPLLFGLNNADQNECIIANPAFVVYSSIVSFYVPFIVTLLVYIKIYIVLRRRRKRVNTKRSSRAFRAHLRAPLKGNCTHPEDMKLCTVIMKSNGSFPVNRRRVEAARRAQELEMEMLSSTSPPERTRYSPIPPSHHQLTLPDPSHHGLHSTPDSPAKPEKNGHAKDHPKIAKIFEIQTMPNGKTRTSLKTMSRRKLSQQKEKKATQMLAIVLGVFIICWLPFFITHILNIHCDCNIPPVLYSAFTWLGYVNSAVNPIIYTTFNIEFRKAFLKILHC
row,Structure (SMILES),inhibition
1,Cc1ccc(S(=O)(=O)NC2(C(F)(F)F)NC(=O)N(c3ccc(F)cc3)C2=O)cc1 (stereo not given),16.4%
2,CCOc1ccc(C(=O)c2cn(CC(=O)Nc3ccc(OC)cc3)c3cc4c(cc3c2=O)OCO4)cc1,-6.97%
3,COc1ccccc1NS(=O)(=O)c1cccc(C(=O)NCC(c2ccco2)N2CCCC2)c1 (stereo not given),active: 62.6%
4,Cc1ccc(NC(=O)N2CC3CCCN3c3ccccc32)cc1C (stereo not given),6.25%
5,CCN(CC)Cc1ccccc1CNC(=O)c1cccc(S(=O)(=O)Nc2ccc3c(c2)OCO3)c1,active: 74.5%
6,COc1ccc(C(=O)Nc2ccc(NC(=O)c3cccs3)cc2)cc1OC,1.1%
7,O=C(Oc1ccccc1C(=O)N1CCOCC1)c1cccc(Br)c1,active: 47.3%
8,COc1cccc(OC)c1OCC(O)CN1CCN(c2ccc(F)cc2)CC1 (stereo not given),active: 73%
9,Cc1cccc(C(=O)NCC(c2cccs2)S(=O)(=O)c2cccs2)c1 (stereo not given),-27.7%
10,Cc1ccc2oc3c(c(=O)c2c1)C(c1ccccc1F)N(c1ccccn1)C3=O (stereo not given),-13.5%
11,COc1ccc(Cn2ccnc2SCC(=O)Nc2ccc3c(c2)OCO3)cc1,6.87%
12,COc1ccc(-c2cc(C(F)(F)F)n3nc(C(=O)Nc4cc(C(F)(F)F)ccc4Cl)cc3n2)cc1OC,-4.17%
13,O=C(NCCc1ccccc1)C(=O)NCC1OCCN1S(=O)(=O)c1ccc(Br)cc1 (stereo not given),active: 30.6%
14,CCN1CCN(Cc2c(O)ccc3oc(C)c(C(=O)Nc4ccc(OC)cc4)c23)CC1,13.1%
15,CCn1c(SCC(=O)Nc2cc3oc4ccccc4c3cc2OC)nnc1-c1cccs1,active: 44.8%
16,Cc1ccc(NC(=O)CSc2nc3nc(C)c(Cc4ccccc4)c(C)n3n2)cc1,2.73%
17,CC(C)CNC(=O)N1CCN(S(=O)(=O)c2ccc3c(ccn3C)c2)CC1,18%
18,Cc1oc2c(c1C(=O)Nc1ccc(F)c(F)c1)C1=NCCN1C=N2,4.79%
19,CCc1cccc(CC)c1NC(=O)CCS(=O)(=O)c1ccc(Br)s1,-4.37%
20,CCCCOc1ccc2c(C)cc(=O)oc2c1OCCCC,active: 42.9%
21,Cc1cccc(C)c1NC(=O)c1nc(S(C)(=O)=O)ncc1N(Cc1ccc(C(C)(C)C)cc1)Cc1ccco1,-3.37%
22,CCOC(=O)c1ccccc1Nc1nc2ccc(C)cc2n2nnnc12,16%
23,Cn1cc(-c2cc3n(n2)CCC(=O)N3CCCC(=O)NCc2ccc(F)cc2)c2ccccc21,1.03%
24,CCOc1ccc(NC(=O)c2oc3ccccc3c2NC(=O)C2CCCCC2)cc1,-1.38%

row,Structure (SMILES),inhibition
1,Cc1ccc(NC(=O)Cn2c(=O)c(C(F)(F)F)nc3ccccc32)cc1C,4.4%
2,CCOC(=O)c1ccccc1NC(=O)Cn1nnc2sc3c(c2c1=O)CCCC3,22.3%
3,COc1ccc(CNC(=O)C2CCCN(S(=O)(=O)N(C)c3ccc(F)cc3)C2)cc1OC (stereo not given),1.11%
4,O=C(OCc1cc(=O)n2nc(-c3cccs3)sc2n1)c1cccc(Cl)c1,7.73%
5,CCOC(=O)c1cccc(NC(=O)c2ccc3c(c2)nnn3CC)c1,-0.411%
6,Cc1ccc(C)c(Cn2c(=O)n(CC3CCC(C(=O)N4CCOCC4)CC3)c(=O)c3sccc32)c1 (stereo not given),-1.6%
7,COc1cccc(-c2nnc(SCC(=O)N3CCCCC3)o2)c1,18.2%
8,CCOC(=O)c1c(S(=O)(=O)N2CCCC(C(=O)NCc3ccc(F)cc3)C2)c(C)n(CC)c1C (stereo not given),-3.48%
9,O=C(CCCCn1c(=O)[nH]c2ccsc2c1=O)N1CCN(c2cccc(C(F)(F)F)c2)CC1,-8.09%
10,CC(=O)N1CCc2c(sc3c2c(=O)n(-c2cccc(Cl)c2C)c(=O)n3Cc2ccccc2C)C1,0.93%
11,Cc1ccccc1C(=O)Nc1cccc(OCc2cc(=O)n3c4c(sc3n2)CCCC4)c1,-0.181%
12,COc1ccc(C(=O)c2ccc(N3CCN(C4CC(=O)NC4=O)CC3)cc2)cc1F (stereo not given),active: 34%
13,CC1CCN(S(=O)(=O)c2ccc3c(c2)N(CC(=O)NCCN(C)C)C(=O)CO3)CC1,-1.64%
14,Cc1ccc(C)c(CNS(=O)(=O)c2ccc3c(c2)C(C)(C)C(=O)N3C)c1,-1.78%
15,COc1ccc2c(c1)c1c(c(=O)n(-c3ccc(C)cc3)c(=O)n1CC(=O)c1ccc(Cl)cc1)n2C,-3.02%
16,COc1ccc(NC(=O)Cn2cc(S(=O)(=O)N3CCC(C)CC3)c3ccccc3c2=O)cc1Cl,-5.04%
17,Cc1ccc(C)c(N2CCN(C(=O)c3ccc(-c4nc(COc5ccccc5)c(C)o4)cc3)CC2)c1,-1.18%
18,CCOc1ccc(NC(=O)c2ccc3[nH]c(C)cc(=O)c3c2)cc1,6.5%
19,CCOC(=O)c1c(-c2ccc(OC)cc2)cn2ccccc12,active: 62%
20,COc1ccc2c(CNCCc3ccccc3C)c(C(=O)O)n(Cc3ccccc3C)c2c1,10.3%
21,CCOc1ccc(NC(=O)c2cnn(-c3ccccc3)c2-n2cccc2)cc1,6.18%
22,CCN(CC)C(=O)CSc1nc2c(c(=O)n(C)c(=O)n2C)n1Cc1ccccc1,-1.65%
23,N#Cc1c(-c2ccccc2)cc(-c2ccccc2)nc1SCC(O)CS(=O)(=O)Cc1ccccc1 (stereo not given),10.4%
24,O=C(Cn1cc(SCc2ccc(F)cc2)c2ccccc21)N1CCCCCC1,-2.35%

row,Structure (SMILES),inhibition
1,O=C(CCc1ccccc1)N(Cc1cccnc1)c1nc2ccc(F)cc2s1,2.13%
2,CCOCCCNC(=O)C1CCCN(c2ncnc3onc(C)c23)C1 (stereo not given),7.14%
3,CCc1cc(=O)oc2cc(OCC(=O)NCCCn3ccnc3)ccc12,active: 37.4%
4,CCOC(=O)C1CCCN(C(=O)c2ccccc2NC(=O)c2nsc3ccccc23)C1 (stereo not given),-18.3%
5,Cc1ccccc1Cn1nnc2c(=O)[nH]c(C3CCCN(C(=O)c4ccc(C(C)(C)C)cc4)C3)nc21 (stereo not given),1.5%
6,O=C(c1ccc2c(c1)N(Cc1cccc(Cl)c1)C(=O)c1ccccc1S2(=O)=O)N1CCCC1,-2.75%
7,Cc1ccc(NC(=O)CN(C)C(=O)COc2cc(F)ccc2[N+](=O)[O-])cc1,active: 61.9%
8,COc1ccc(OC)c(CCNC(=O)c2cnn(-c3ccccc3)c2-n2cccc2)c1,1.35%
9,O=C(CCS(=O)(=O)c1cc(Br)cc2c1N(C(=O)C1CC1)CC2)N1CCN(c2ccccc2)CC1,-25.1%
10,COc1ccc(CCNCC(=O)Nc2c(C)cc(C)cc2C)cc1OC,active: 44.9%
11,CCc1ccc(NC(=O)Cn2c(=O)n(Cc3ccc(C)cc3)c(=O)c3cccnc32)cc1,-0.628%
12,Cc1ccccc1C(=O)Nc1nnc(S(=O)(=O)N2CCc3ccccc32)s1,-20.2%
13,CC(=O)N1CCCc2cc(S(=O)(=O)N3CCC(C(=O)N(C)C4CCCCC4)CC3)ccc21,-7.29%
14,CCOC(=O)c1ccccc1NC(=O)N1CCCn2nc(C)cc21,6.11%
15,Cc1cc(C)cc(N2C(=O)CSC23C(=O)N(CC(=O)NC2CCCCC2)c2ccccc23)c1 (stereo not given),1.04%
16,COc1ccc(C(=O)Nc2cccc(OCc3cc(=O)n4c5c(sc4n3)CCCC5)c2)cc1OC,4.16%
17,CCOC(=O)N1CCN(c2ncc3c(n2)CC(c2ccc(OC)c(OC)c2)CC3=O)CC1 (stereo not given),8.35%
18,O=C1c2ccccc2NC(c2ccco2)N1NS(=O)(=O)c1ccccc1 (stereo not given),active: 32.9%
19,Cc1noc(/C=C/c2ccccc2F)c1S(=O)(=O)N1CCC(C(=O)NCc2ccco2)CC1,19.2%
20,CCCCOc1ccccc1NC(=O)CC1Sc2ccccc2NC1=O (stereo not given),-17.4%
21,COc1ccccc1Cc1nc2ccccc2nc1SCC(=O)N1CCCCC1,0.666%
22,COc1ccc(NC(=O)c2sc3nc4n(c(=O)c3c2C)CCC4)c(OC)c1,-7.77%
23,O=C(N/N=C/C(Br)=C\c1ccccc1)c1ccc2nc[nH]c2c1,active: 34.4%
24,COc1cc2c(C(=O)N3CCN(c4ccc(F)cc4)CC3)cn(CC(C)C)c(=O)c2cc1OC,-6.8%

row,Structure (SMILES),inhibition
1,CCOc1ccccc1NC(=O)C1CCCN(S(=O)(=O)c2cccs2)C1 (stereo not given),10.8%
2,Cc1ccc(NS(=O)(=O)c2ccc3nc(-c4ccccc4)[nH]c3c2)cc1Cl,9.51%
3,COc1ccc(Br)cc1CNC(=O)C1CCN(c2nnc(-n3cccc3CNc3ccc(C)cc3)s2)CC1,3.79%
4,CC(Cc1ccc(Cl)cc1)N1CCC(n2nccc2NC(=O)C2CCCC2)CC1 (stereo not given),active: 31.1%
5,CSc1nn(CC(=O)Nc2ccc(C)cc2C)c(N)c1S(=O)(=O)c1ccc(Cl)cc1,6.25%
6,CCn1cc(C(=O)N(C)c2cc(C)ccc2C)c2cc(OC)c(OC)cc2c1=O,11.1%
7,O=S(=O)(Nc1nc2n(n1)C(c1ccc(F)cc1)C=C(c1ccc(Cl)cc1)N2)c1ccccc1 (stereo not given),15.2%
8,Cc1ccc(-c2cn3c(n2)sc2cc(C(=O)NC4CCCCCC4)ccc23)cc1,8.44%
9,COCCCNC(=O)C1CCN(Cc2cc3ccccc3n2Cc2cccc(Cl)c2)CC1,3.58%
10,Cc1cc(C)n2nc(CNC(=O)c3cccc(N(C)C)c3)nc2n1,22.4%
11,Cc1noc2ncnc(NCCc3ccccc3)c12,-6.4%
12,CCC12CN3CC(CC)(CN(C1)C3c1c[nH]c3ccccc13)C2=O (stereo not given),-6.28%
13,COc1ccc(N2CCN(C(=O)c3ccc4c(c3)CCN4S(=O)(=O)c3ccccc3)CC2)cc1,14.8%
14,CC(NCc1ccc2c(c1)n(C)c(=O)n2C)c1ccccc1 (stereo not given),-13.9%
15,COc1cc(NC(=O)CSc2cc(=O)n(C)c3ccccc23)cc(OC)c1OC,-16.1%
16,CCOc1ccc(NC(=O)CCc2c(C)nc3c4c(C)cc(C)nc4nn3c2C)cc1,-11.5%
17,CN(Cc1ccccc1)c1ccc2cc(S(=O)(=O)N3CCCCC3)ccc2n1,-0.932%
18,Cc1ccc(C)c(CSc2cn(CC(=O)N3CCCC3)c3ccccc23)c1,-14.1%
19,COc1ccc2cc(-c3nc(-c4ccc(N(C)C)cc4)no3)c(=O)oc2c1,-5.73%
20,COc1ccc(-c2nc3ccccc3o2)cc1NC(=O)c1cccc2c(Cl)cccc12,-1.34%
21,CCOc1ccc(N2CC(NC(=O)Cc3cccs3)CC2=O)cc1 (stereo not given),-21.6%
22,CCOc1ccc(CCNC(=O)CCn2c(=O)c3cccn3c3ccc(F)cc32)cc1OCC,-4.87%
23,Cc1nn(C)c2c1c(-c1ccccc1)cc(=O)n2Cc1ccc(F)cc1Cl,-3.19%
